Assay results reported in PubChem BioAssay AID624171 (National Center for Advancing Translational Sciences (NCATS), 2012).
About 1,200 (0.29%) of roughly 410,000 compounds were called active. The inconclusive results got no clear call from the source; some entries with a clear call stand among them for comparison. The call rests on the fitted dose curve; in most records, active means well fitted activation curve with a large enough effect; inconclusive means small, poorly fitted or top-dose-only effect; inactive means flat fitted curve, though single readings scatter. Potencies beside an inconclusive call are fits to weak or partial responses and may not hold up.

Experiment: qHTS of Nrf2 Activators; further: nearly all actives have a fitted effect of over 65% in size
Settings: AREc32 ARE-luciferase reporter (MCF7-derived line), luminescence, 24 h; activation: at 46.1 µM (top of the series)
Outline: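 Nrf2 activation is followed as ARE-luciferase induction in the AREc32 line after one day of compound treatment; luminescence is read with Steady-Glo.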
Potency means the concentration at half of the fitted maximal effect; tags describe the fitted curve by direction and shape.

Potency, inconclusive:
N#CC(=C1C=C(Br)C(=NO)C=C1Cl)c1ccc(Cl)cc1 25.1 µM [activator, single point]
Cc1nn(C)c(C)c1/C=C(/C(=O)C(C)(C)C)n1cncn1 10 µM [activator, partial curve]
CN(C#N)c1nccc(-c2cccs2)n1 17.8 µM [activator, single point]
CC(C)(C)C(=O)/C(=C/c1ccc(Cl)cc1)n1cncn1 5.62 µM [activator, single point]
CCC1=C/C(=C/N(C)c2ccccc2)C(=O)S1 35.5 µM [activator, single point]
N/C(=N\OC(=O)c1cc(Br)ccc1Cl)c1ccccn1 1.41 µM [activator, partial curve, poor fit]
CCc1ccc(C(=O)Nc2ccc3c(c2)n(C)c(=O)n3C)cc1 20 µM [activator, single point]
c1csc(-c2nc3c4ccccc4c4ccccc4c3[nH]2)c1 12.6 µM [activator, partial curve, poor fit]
C=CCc1cc(/C=C2/NC(=O)NC2=O)cc(OCC)c1O 11.2 µM [activator, partial curve]
N#Cc1nc2ccccc2n1OCc1ccccc1 15.8 µM [activator, single point]
O=C(Nc1noc2ccccc12)c1cccc(F)c1 3.16 µM [activator, single point]
C#CCn1cc(/C=N/NC(=O)COc2cccc3cccnc23)c2ccccc21 31.6 µM [activator, partial curve, poor fit]
CCOC(=O)C(C)(C)N(Cc1cccc(C)c1)S(=O)(=O)c1ccc(Cl)c([N+](=O)[O-])c1 22.4 µM [activator, single point]
CCOC(=O)C1CCN(C(=O)CSc2c3c(nc4ccc(Cl)cc24)CCCC3)CC1 15.8 µM [activator, partial curve, poor fit]
Nc1ccc(-c2nc3cc(N)ccc3s2)cc1 1 µM [activator, full curve, poor fit]
COCCNC(=O)/C(C#N)=C/c1cccc(/C=C(\C#N)C(=O)NCCOC)c1 35.5 µM [activator, single point]
O=C(CSc1ncnc2sc3c(c12)CCCC3)c1ccco1 1.26 µM [activator, full curve]
COc1cc(C(=S)N2CCOCC2)ccc1OS(=O)(=O)c1ccccc1[N+](=O)[O-] 17.8 µM [activator, single point]
COC(=O)c1ccc(NC(=O)c2nc(S(=O)(=O)Cc3cccc(C)c3)ncc2Cl)cc1 5.62 µM [activator, single point]
O=C(CCN1CCc2ccccc2CC1)c1ccc2c(c1)OCCO2 3.16 µM [activator, single point]
Brc1csc(/C=N/Nc2nc3ccccc3s2)c1 3.16 µM [activator, partial curve, poor fit]
O=Cc1c(Sc2ccccn2)nc2ccccn2c1=O 7.08 µM [activator, partial curve, poor fit]
Cc1cc2ccccn2c1C(=O)c1ccc(NN)c([N+](=O)[O-])c1 12.6 µM [activator, partial curve]
COc1cc2c(cc1NC(=O)c1cccc(F)c1)CCCC2 2.51 µM [activator, full curve, poor fit]
N#CC(C#N)=c1ccc2c(c1)NC1(CCCCC1)N=2 3.16 µM [activator, partial curve, poor fit]
O=C(CCl)N1c2ccccc2Sc2c1ccc1ccccc21 22.4 µM [activator, single point]
COc1ccc(OC)c(/C=C/C(=O)c2ccc3c(c2)OCCO3)c1 15.8 µM [activator, partial curve, poor fit]
O=C(OCc1ccccc1)/C(=C/c1ccccc1Cl)NC(=O)c1ccco1 35.5 µM [activator, single point]
O=C(CCNc1ccc(Cl)c(C(F)(F)F)c1)c1ccco1 25.1 µM [activator, single point]
CCC(Sc1nc(C)cc(C)n1)C(=O)NC1=NN=C(c2ccc(C)cc2)CS1 (centres undefined) 22.4 µM [activator, partial curve, poor fit]
COCCCNC(=O)c1cccc2c(-c3ccc(O)c(OC)c3)coc12 11.2 µM [activator, partial curve, poor fit]
COc1ccc(-c2csc(NC3OC(=O)c4c3ccc(OC)c4OC)n2)cc1OC (centres undefined) 22.4 µM [activator, partial curve, poor fit]
COc1ccc(-c2ccc(CCC(=O)O)n2-c2cc(Cl)ccc2O)cc1 15.8 µM [activator, partial curve, poor fit]
Cc1cc(C)nc(NC(=O)c2ccc([N+](=O)[O-])o2)n1 31.6 µM [activator, single point]
COc1ccc2cc(S(=O)(=O)c3ccccc3)c(=O)oc2c1 15.8 µM [activator, partial curve, poor fit]
C#CCN(C[C@@H]1[C@@H](OC(=O)NCC2CCCCC2)[C@@H](OC(=O)NCC2CCCCC2)Cn2c(=O)ccc(=O)n21)S(=O)(=O)c1ccc(C)cc1 3.16 µM [activator, single point]
O=C(/C=C\Nc1ccccn1)c1ccccc1 5.62 µM [activator, partial curve]
CCOC(=O)CS(=O)(=O)c1nc(-c2ccc(F)cc2)cc(C(F)(F)F)n1 3.98 µM [activator, single point]
N#C/C(=C(/O)CCl)c1nc2c(s1)CCc1ccccc1-2 15.8 µM [activator, single point]
S=c1[nH]nc(-c2ccccc2)n1/N=C/C=C/c1ccco1 5.01 µM [activator, partial curve]
Cc1ncc(CN2CCCC(C(=O)Nc3ccc(-c4ccco4)cc3)C2)n1C (centres undefined) 17.8 µM [activator, single point]
Cc1ccc(SCC(=O)Nc2ccc(O)c(-c3nc4cc(C)ccc4o3)c2)cc1 17.8 µM [activator, single point]
O=C(c1cccs1)c1ccc(-c2cccs2)s1 2.82 µM [activator, partial curve, poor fit]
Cc1nc(NC(=S)NC(=O)c2ccccc2)sc1C 2.51 µM [activator, full curve, poor fit]
Cc1nn(-c2ccccc2)c(Cl)c1/C=N/NC(=O)c1nn(C)cc1[N+](=O)[O-] 15.8 µM [activator, partial curve, poor fit]

Potency, inactive:
Cc1ccc(-n2ncc(C(=O)NCc3cccs3)c2C2CCN(C(=O)OC(C)(C)C)CC2)cc1C
COc1cccc(/C=C2\Sc3ccc(C(=O)NCc4cccnc4)cc3N(C)C2=O)c1
COc1ccc(OC)c(CCNC(=O)CCn2c(=O)c3cccn3c3cccnc32)c1
O=C(COC(=O)c1cccc(OC(F)F)c1)NC1CCCC1
O=C(CSCc1cccc(CSCC(=O)Nc2ccc3ccccc3c2)n1)Nc1ccc2ccccc2c1
Cc1ccc(NCC(=O)Nc2ccc(F)c(Cl)c2)cc1S(=O)(=O)N1CCOCC1
Cn1c(N)c(C(=O)COC(=O)CNS(=O)(=O)c2ccc(Cl)c(Cl)c2)c(=O)n(C)c1=O
O=C(CSc1ncnc2ccccc12)Nc1cccc(S(=O)(=O)N2CCOCC2)c1
O=C(O)c1nn(-c2ccccc2)nc1-c1nn(-c2ccccc2)nc1C(=O)O
COCCOC(=O)C(C#N)c1nc2ccccc2nc1N1CCN(Cc2ccccc2)CC1 (centres undefined)
CNC(=O)c1cc2n(n1)CCCN(Cc1ccc(F)cc1)C2=O
CNC(=O)/C=C1\NC(C)(C)Cc2c1ccc1ccccc21
O=C(COC(=O)c1ccccc1Br)NCCC1=CCCCC1
Cc1noc(C)c1S(=O)(=O)N1CCC(C(=O)N2CCN(c3ccccc3Cl)CC2)CC1
CCOC(=O)c1cc(S(=O)(=O)Nc2ccccc2OCC)[nH]n1
CCCCOc1ccc(C(=O)NCC(=O)N2CC(C)OC(C)C2)cc1 (centres undefined)
Cc1cc(NS(=O)(=O)c2ccc(Nc3nc(-c4ccc(O)cc4)cs3)cc2)no1
CC12CCC(=O)C=C1CCC1C2CCC2(C)C1CCC2(O)C(=O)CO (centres undefined)
Cn1c(CN2CCCCC2)nc2cc(NC(=O)c3ccccc3)ccc21
COc1cc(OC)cc(C(=O)Nc2cc(NC(=O)c3ccco3)ccc2OC)c1

Potency, active:
Cc1occc1C(=O)Nc1nnc(-c2cccs2)s1 11.2 µM
CCCCn1c(CCC)nc([N+](=O)[O-])c1Sc1ccc(Cl)cn1 11.2 µM
Cc1nc(NC(=O)c2cccs2)ccc1Br 15.8 µM
Brc1cccc(-c2nc3c4ccccc4ccn3c2Cc2ccsc2)c1 11.2 µM
